The text below walks through data of the RNAGym collection of RNA variant scans (doi:10.1093/nar/gkz1192).

To fix the notation:
B1: CPEB3 Ribozyme (parent)
chain: UAACAGGGGGCCACAGCAGAAGCGUUCACGUCGCAGCCCCUGUCAGAUUCUGGUGAAUCUGCGAAUUCUGCUGUAUAUCUC

The source gives no read counts; variants with many changes may rest on few reads.

In the data set the parent is B1. Description: self-cleavage, relative activity (ratio to wild type); higher = more cleavage; in vitro, sequencing. The method, boiled down:
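After error-prone PCR and barcoding, CPEB3 ribozyme mutant libraries were transcribed with T7 RNA polymerase at 37°C for 5 hours, then given 15 min with DNase I before an EDTA stop, and they cleaved during both steps. Reverse transcription with template switching preceded Illumina sequencing. Relative activity divides a variant's cleaved/total read fraction by the unmutated ribozyme's. At least 5 reads were required per variant, and three batches were averaged.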
With UAACAGGGGGCCACAGCAGAAGCGUUCUCGCCGCAGCCCCUGUCGGAUUCUGGUGAAUCUGCGAAUUCUGCUGUAUAUCUC, the self-cleavage is 0.25.
The result for UAACAGGGGGCCACAGCAGAAGCGUUCUCGUCGCAGCCCCUGUCAGAUUCUGGUGAGUCUGCGAAUUCUGCAGUAUAUCUC reads 0.5.
Regarding UAACAGGGGGCCACAGCAGAAGCGUUCUCGUCGCAGCCCCUGUCAGAUUCUGGUGAAUCUGCGGAUUCUGCUGUACAUCUC, the self-cleavage came to 0.82.
The same measure for UAACAGGGGGCCACAGCAGAAGCGUUCUCGUCGCAGCCCCAGUCAGAUCCUGGUGAACUUGCGAAUUCUGCUGUAUAUCUC: 0.08; for UAACAGGGGGCCACAGCAGAAGCGUUCUUGUCGCAGCCCCUGUCAGAUUCUGGUGGGUCUGCGAAUUCCGCUGUAUAACUC: 0.08; for UAACAGGGGGCCACAGCAGAAGCGUUCUCGUCGCAACCCCUGUCAGAUCCUGGUGAAUCUGCGAAUUCUGCUGUAUAUCUC: 0.37.
On to UAACAGGGGGCCACAGCAGAAGCGUUCUCGUCGCAGCCCCAGUCAGAUUCUGGUGAAUCUGCGAAUUCUGCUGUUUAUCUC, for which the self-cleavage was 0.08.
The same measure for UAACAGGGGGCCACAGCAGAAGCGUUCUUGUCGCAGCCCCUGUCAGAUCCUGGUGAAUCUGCGAAUUCUGCGGUAUAUCUC: 0.09.
With UAACAGGGGGCCACAGCAGAAGCGUUCUCGUCGCAGCCCCUGACAGAUUCUGGUGAAUCUGCGAAUUCCGCUGUAUAUCUC, the self-cleavage amounted to 0.67.
The result for UAACAGGGGGCCACAGCAGAAGCGUUCUCGUCACAGCCCCUGUCAGGUUCCGGUGAAUCUGCGAAUUCUGCUGUAUAUCUC reads 0.11; that for UAACAGGGGGCCACAGCAGAAGCGUUCUCGCCGCAGCCCCUGUCAGAUUCUGGUGAAUCUGCGAAUUCUGCUGUAUAUCCC, 0.73; that for UAACAGGGGGCCACAGCAGAAGCGUUCUCGUCGCAGCACCCGUCAGGUUCUGGAGAAUAUGCGAACUCUGCUGUAUAUCUC, 0.06.
UAACAGGGGGCCACAGCAGAAGCGUUCUCGCCGCAGCCCCUGUCGGACUCUGGUGAAUCUGCGAAUUCUGCUGUAUAUCUC: the self-cleavage is 0.07.
The same measure for UAACAGGGGGCCACAGCAGAAGCGUUCUCGUCGCAGCACCAGUCAGAUUCUGGUGAAUUUGCGAAUUCUGCUGUAUAUCUC: 0.15; for UAACAGGGGGCCACAGCAGAAGCGUUCUCGUCCCAGCCCCUGUCAGAUUCUGGUGAAUCUGCGAAUUCUGCUCUAUACCUC: 0.08; for UAACAGGGGGCCACAGCAGAAGCGUUCUCGUUGCAGCCUCUGUCAGAUUCUGGUGAAUCUGCGAAUUCUGCUGUAUAUCUC: 0.14.
The result for UAACAGGGGGCCACAGCAGAAGCGUUCUCGCCGCAGCCCUUGUCAGAUUCUGGUGAAUCUGCGAAUUCUGCUGUAUAACUC reads 0.25.
With UAACAGGGGGCCACAGCAGAAGCGUUCUCGUCGCAGCCCCCGUCAGUUUCUGGUGAAUCUGCGAAUUCUACCGUAUAUCUC, the self-cleavage worked out at 0.07.
The same measure for UAACAGGGGGCCACAGCAGAAGCGUUCUCGUCGCAGCCCCAGUCAGAUUCAGGUGAAUCUGCGAAUUCUGCUGUGUUUCUC: 0.09; for UAACAGGGGGCCACAGCAGAAGCGUUCUUGUCGCAGCCCCUGACAGAUUCUGGUGAAUCUGCGGAUUCUGCUGUAGAUCUC: 0.33; for UAACAGGGGGCCACAGCAGAAGCGUUCUCGUCGCAGCCCCUGUCAGAUUCUGGUGAAUCUGCGGAUUCUGCUGCAUAUCUC: 0.91.
The result for UAACAGGGGGCCACAGCAGAAGCGUUCUCGUCGCAGCCCCCGUCAGAUUCUGGUGUAUCUGCGAAUUCUGCUGUAUAUCAC reads 0.63; that for UAACAGGGGGCCACAGCAGAAGCGUUCUCAUCGCAGCCCCUGUCAGAAUCUGGUGAAUCUGCGAAUUCUGCUGUAUAUCUC, 0.19; that for UAACAGGGGGCCACAGCAGAAGCGUUCUCGUAGCGGCCCCUGUCAGAUUCUGGUGAAUCUGCGAAUACUGCUGUAUACCUC, 0.09.
The result for UAACAGGGGGCCACAGCAGAAGCGUUCUCGUCGUAGCCCUUGUCAGACUCUGGUGAAUCUGCGAAUUCUGCUGUAUAUCUC reads 0.12; that for UAACAGGGGGCCACAGCAGAAGCGUUCUCCUCGCAGCCCCUGACUGAUUCUGGUGAAUCUGCGAAUUCUGCUGUAUAUCUC, 0.08.
With UAACAGGGGGCCACAGCAGAAGCGUUCUCGUCGCAGCCCCAGUCAGAUCCUGGUGAAUCUGCGAAUUCUGCUGUAUAUCUC, the self-cleavage was found to be 0.09.
The same measure for UAACAGGGGGCCACAGCAGAAGCGUUCUCGCCGCAGCCCCUGUCGGAUUCUGGUGAAUCUGCGAAUUCUGCUGUAUAACUC: 0.34; for UAACAGGGGGCCACAGCAGAAGCGUUCUCGUCGCAGCCACUGUCAGAUUCUGGUGGAUCUGCGAAUUCUGCUGUAUAUCUC: 0.19.
The result for UAACAGGGGGCCACAGCAGAAGCGUUCUCGUCGCAGCCCCCGUCAGAUCCUGGUGAAUCUGCGGAUUCUGCUGUAUAUCUC reads 0.13.
The same measure for UAACAGGGGGCCACAGCAGAAGCGUUCUCGUCGCAUCCCCUGUCGGAUUCUGGUGAAUCUGCGAAUUCUGCUGUAUAUCUC: 0.15; for UAACAGGGGGCCACAGCAGAAGCGUUCUCGACGCAGCCCCUGUCGGAUUCUGGUGAAUCUGCGAAUUCUGCUGUAUAUCUC: 0.34; for UAACAGGGGGCCACAGCAGAAGCGUUCUCGUCGCAGCCCCUAUCAGAUUCUGGUGAAUCUGCGAAUUCCGCUGUAUAUCUC: 0.5.
Consider UAACAGGGGGCCACAGCAGAAGCGUUCUCGUCGCAGGCCCUGCCGGAUUCUGGUGAAUCUGCGAAUUCUGCUGUAUAUUUC, for which the self-cleavage was 0.17.
The same measure for UAACAGGGGGCCACAGCAGAAGCGUUCUCGUCGCAGCCCCUGUCAGAUUCUAGUGAAGCAGCGAGUUCUGCUGUAUAUCUC: 0.15; for UAACAGGGGGCCACAGCAGAAGCGUUCUCGUCGCAGCCCCUGUCAGAUUCUGGUGAAUCUGCGGAUUCUGCUGUUUAUCUC: 0.87.
The result for UAACAGGGGGCCACAGCAGAAGCGUUCUCGUCGCAGCCCGUGUCAGGUUCUGGUGAAUCUGCGAAUUCUGCUGUAUAUCUC reads 0.28; that for UAACAGGGGGCCACAGCAGAAGCGUUCUCGUCGCAGCCCCUGUCAGAUUCUGGUGAAUCUGCGUAUUCUGCCGUAUAUCUC, 0.37; that for UAACAGGGGGCCACAGCAGAAGCGUUCUCGUCGCAGCCCCUGACAGAUUCUGGUGAAUCAGCGAAUUCAGCAGUAUAUCUC, 0.33.
For the variant UAACAGGGGGCCACAGCAGAAGCGUUCUCGUCGCAGCCGCUGUCAGAUUCAGGUGAAUCUGCGAAUUCUGCUGUAUAUCUC, the self-cleavage came to 0.11.
The same measure for UAACAGGGGGCCACAGCAGAAGCGUUCUCGACGCAGCCCCUGUCAGAUACUGGUGAAUCUGCGAGUUCUGCUGUAUAUCUC: 0.18; for UAACAGGGGGCCACAGCAGAAGCGUUCUCGCCGCAGCCCCUGUCAGAUUCUGGAGGAUCUGCGAAUUCUGCCGUAUAACUC: 0.35; for UAACAGGGGGCCACAGCAGAAGCGUUCUCGUCGCAGCCCCUGUCAGAUUCUGGUGAAUCUGCGGAUCCUGCGGUAUAUCUC: 0.36.
The result for UAACAGGGGGCCACAGCAGAAGCGUUCUCGUCGCAGCCCCUAUCAGAUUCCGGUGAAUCUGCGAAUUCUGCUGUAUAUCUC reads 0.14.
The same measure for UAACAGGGGGCCACAGCAGAAGCGUUCUAGUCGCAGCCCCAGUCAGAUUCUGGUGAAUCUGCGAAUUCUGCAGUAUAUCUC: 0.19.
With UAACAGGGGGCCACAGCAGAAGCGUUCUCGUCGCAGCCCCUGUCAGAUUCUGGUGAAUCUGCGGAUCCUGCUGUAUAUCUC, the self-cleavage worked out at 0.16.
The same measure for UAACAGGGGGCCACAGCAGAAGCGUUCUCGCCGCAGCCCUUGACAGAUUCUGGCGAAUCUGCGAAUUCUGCUGUAUACCUC: 0.16.
The same measure for UAACAGGGGGCCACAGCAGAAGCGUUCUCGUCGCAGCCCCCGUCAGAUUCAGGUGAAUCUGCGAAUUCUGCUGUAUACCUC: 0.67.
For UAACAGGGGGCCACAGCAGAAGCGUUCUCCUCGCAGCCCCUGUCAGAUUCUGGUGAAUCUGCGAAUUCUGCCGUAUACCUC, the self-cleavage was 0.07.
The same measure for UAACAGGGGGCCACAGCAGAAGCGUUCUCGCCGCUGCCCCUGUCAGAUCCUGGUGAAUCUGCGUAUUCUGCUGUAUAUCUC: 0.11; for UAACAGGGGGCCACAGCAGAAGCGUUCUCGUCGCAGCCCUUGUCAGAUUCUGGUGAAUCUGCGGAUUCCGCUGUAUAUCUC: 0.36; for UAACAGGGGGCCACAGCAGAAGCGUUCUCGACGCAGCCCCUGUCAGAUUCUGGUGGAUCUGCGAAUUCUGCUGUAUAUCCC: 0.44.
The result for UAACAGGGGGCCACAGCAGAAGCGUUCUCGUCGCAGCCCCUGUAUGAUUCCGGUGAAUCCGCGAAUUCUGCUGUAUACCUC reads 0.2; that for UAACAGGGGGCCACAGCAGAAGCGUUCUCGACGCAGCCCCUGUCAGAUUCUGGUGAAUCUGCGAAUCCUGCUGUAUAUCCC, 0.07; that for UAACAGGGGGCCACAGCAGAAGCGUUCUCGACGCAGCCCCUGUCAGAAUCUGGUGAAUCUGCGAAUCCUGCUGUAUAUCUC, 0.43.
The same measure for UAACAGGGGGCCACAGCAGAAGCGUUCUAGUCGCAGCCCCUGUCUGAUUCCGGUGAAUCUGCGAAUACAGCUGUAUAUCCC: 0.1; for UAACAGGGGGCCACAGCAGAAGCGUUCUCGCCGCAGCCCCUGCCAGAUUCUGGUGAAUCUGCGAAUUCUGCUGUAUAUCUC: 0.24.
Take UAACAGGGGGCCACAGCAGAAGCGUUCUCGUCGCAGCCCCUGUCACACUCUAGUGACUCUGCGACUUCUGCUGUAUAUCUC: the self-cleavage amounted to 0.07.
In the case of UAACAGGGGGCCACAGCAGAAGCGUUCUCGCCGCAGCCCCUGUCAGAUUCUGGUGAAUCUGCGAGUUCUGCUGUAUAUCUC, the self-cleavage is 0.13.
The result for UAACAGGGGGCCACAGCAGAAGCGUUCUCGUCGCAGCCCCCGUCAGAUUCUGGUGAAUCUUCGAAUCCUGCUGUAUGUCUC reads 0.09.
The same measure for UAACAGGGGGCCACAGCAGAAGCGUUCUCGCCGCAGCCCCUGUCAGAUACUGGUGAAUCUGCGAAUUCUGCUGUAUAUCUC: 0.23; for UAACAGGGGGCCACAGCAGAAGCGUUCUCGUCUCAGCCCCUGUCAGAUUCCGAUGAAUCUGCGAAUUCUGCUGUACAUCAC: 0.06; for UAACAGGGGGCCACAGCAGAAGCGUUCUCGCCGCAGCCCCUGUCAGAUUCUGGUGAAUCUGCGAAUUCUGCUGUAUACCUC: 0.55.
On to UAACAGGGGGCCACAGCAGAAGCGUUCUUGUCGCAGCCCCUGUCGGAUUCUGGUGAAUCUGCGGAUUCUGCUGUAUAUCUC, for which the self-cleavage was determined as 0.27.
The same measure for UAACAGGGGGCCACAGCAGAAGCGUUCUCGUCGCAGCCCAUGUCAGAUUCUGGUGAAUCUGCGAGUUCCGCUGUAUAUCUC: 0.1.
In the case of UAACAGGGGGCCACAGCAGAAGCGUUCUCUCCGCAGCCCCAGUCAGAUUCUGGUGAAUCUGCGAAUUCUGCCGUAUGUCUC, the self-cleavage was determined as 0.11.
The result for UAACAGGGGGCCACAGCAGAAGCGUUCUCGCCGCAGCCCCUGUCAGAUUCUGGUGUAUCUGCGAAUUCUGCUGUAUAUCUC reads 0.33; that for UAACAGGGGGCCACAGCAGAAGCGUUCUUGUCGCAGCCCCUGUCAGAUUCAGGUGAAUCUGCGAAUCCUGCUGUAUAUCUC, 0.13.
